Measurements reported in PubChem BioAssay AID485360 (National Center for Advancing Translational Sciences (NCATS), 2010).
In all, about 230,000 compounds went through this assay and about 1,500 (0.65%) were called active. Inconclusive results, whose numbers are uncertain, are shown with a selection of clear calls. Calls follow the shape of the dose curve; as a rule, active = well fitted inhibition curve with a large enough effect; inconclusive = small, poorly fitted or top-dose-only effect; inactive = no such curve, though single readings can be large or run the other way. Potencies of inconclusive entries are doubtful fits and often do not repeat.

target: Lethal(3)malignant brain tumor-like protein 1 (Homo sapiens) (UniProt Q9Y468); assay: qHTS Assay for the Inhibitors of L3MBTL1; details: AlphaScreen L3MBTL1–H3K9me1 peptide binding; series mostly up to 57.1 µM; also: nearly all actives have a fitted effect of over 60% in size
Summary of the method: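 AlphaScreen proximity signal between nickel-chelate acceptor and streptavidin donor beads (final 10 ug/mL) reports binding of 50 nM L3MBTL1 to 75 nM biotin-H3 K9me1 peptide; complex incubated with compounds 30 min at room temperature; cefsulodin titration as control.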
Potency is read from the fitted curve at half-maximal effect; tags tell the direction and shape of the fitted curve.

Sequence of UniProt Q9Y468 (Q9Y468 whole entry, looked up): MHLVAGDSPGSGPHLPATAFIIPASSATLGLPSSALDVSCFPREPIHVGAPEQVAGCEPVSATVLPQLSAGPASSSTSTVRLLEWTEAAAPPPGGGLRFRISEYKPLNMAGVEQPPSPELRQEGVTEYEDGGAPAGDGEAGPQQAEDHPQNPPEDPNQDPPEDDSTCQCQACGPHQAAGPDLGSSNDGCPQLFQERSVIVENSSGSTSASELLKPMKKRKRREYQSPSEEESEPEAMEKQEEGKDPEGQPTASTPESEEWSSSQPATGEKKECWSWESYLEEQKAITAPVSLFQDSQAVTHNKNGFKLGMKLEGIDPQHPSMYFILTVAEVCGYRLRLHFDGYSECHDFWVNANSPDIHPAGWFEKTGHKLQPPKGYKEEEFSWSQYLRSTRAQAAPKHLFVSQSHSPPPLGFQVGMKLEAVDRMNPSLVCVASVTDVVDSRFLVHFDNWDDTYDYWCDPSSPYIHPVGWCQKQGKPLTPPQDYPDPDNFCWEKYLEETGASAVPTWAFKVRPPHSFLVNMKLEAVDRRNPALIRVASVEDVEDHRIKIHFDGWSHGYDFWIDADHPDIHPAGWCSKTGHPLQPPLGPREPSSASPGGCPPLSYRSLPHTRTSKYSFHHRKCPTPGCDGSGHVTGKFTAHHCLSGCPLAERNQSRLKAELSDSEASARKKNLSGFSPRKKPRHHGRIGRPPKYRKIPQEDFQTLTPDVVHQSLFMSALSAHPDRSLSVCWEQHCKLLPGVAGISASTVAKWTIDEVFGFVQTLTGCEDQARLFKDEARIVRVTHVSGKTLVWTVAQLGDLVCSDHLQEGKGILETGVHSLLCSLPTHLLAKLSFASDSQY

For `Cc1cccc(OCC(=O)N/N=C/C=C/c2ccco2)c1`, which Potency is on record?
Its Potency is inconclusive: 28.2 µM [inhibitor, single point].

How did the Potency turn out when `Cc1c(C)n(Cc2ccccc2)c2ccc(C(=O)OCCN(C)C)cc12` was run?
The Potency was inconclusive: 7.08 µM [inhibitor, partial curve].

For `Cc1ccccc1-n1c(=O)cc(N2CCCCCC2)[nH]c1=O`, which Potency is on record?
Its Potency is inconclusive: 3.16 µM [inhibitor, single point].

Which Potency does the source give for `CCC(C)Nc1nc2c(c(=O)[nH]c(=O)n2C)n1CCC(C)C` (centres undefined) here?
The Potency was inconclusive: 7.08 µM [inhibitor, single point].

How did the Potency turn out when `COc1cc2[nH]c(=S)nc(Nc3ccc(NC(C)=O)cc3)c2cc1OC` was run?
The Potency was inconclusive: 5.01 µM [inhibitor, single point].

`Nc1nc(-c2ccccn2)nc(N)c1Cc1c(F)cccc1Cl` was tested. Which Potency did it give?
Its Potency is active: 3.55 µM.

For `CC(C)N(C(=O)CSc1nnc(Cc2csc(Nc3ccccc3)n2)o1)C(C)C`, which Potency is on record?
Its Potency is inconclusive: 5.01 µM [inhibitor, full curve, poor fit].

For `Cc1ccc(C)c(N2CCN(C(=O)CSc3ccsc3[N+](=O)[O-])CC2)c1`, which Potency is on record?
The Potency was inconclusive: 25.1 µM [inhibitor, single point].

With `Cc1ccc([N+](=O)[O-])c(C)[n+]1C` as the compound, how does the Potency read?
Its Potency is inconclusive: 0.708 µM [inhibitor, full curve, poor fit].

Which Potency does the source give for `CCOc1cc(/C=C2/C(=O)NN(c3cccc(Cl)c3)C2=O)ccc1O` here?
The Potency was “inactive”.

Which Potency does the source give for `CCC(C(=O)Nc1cc(C)nn1-c1nc(C)cc(C)n1)c1ccccc1` (centres undefined) here?
Its Potency is inconclusive: 3.55 µM [inhibitor, full curve, poor fit].

For `Cc1c(C(=O)NCCCn2ccnc2)oc2ccccc12`, which Potency is on record?
Its Potency is inconclusive: 11.2 µM [inhibitor, full curve, poor fit].

Which Potency does the source give for `COc1ccc(C2=NNC(c3cccs3)=Nc3ccc(OC)cc32)cc1` here?
The Potency was inconclusive: 17.8 µM [inhibitor, partial curve].

Which Potency does the source give for `O=C1/C(=C\c2ccco2)SC(=S)N1c1ccccc1` here?
The Potency was inconclusive: 39.8 µM [inhibitor, single point].

Which Potency does the source give for `CCOc1cc(CNc2ccc(N3CCCC3)cc2)cc(Cl)c1OC` here?
Its Potency is inconclusive: 25.1 µM [inhibitor, partial curve].

How did the Potency turn out when `CCc1nnc(NC(=O)c2sc3nc4c(cc3c2N)CCCCCC4)s1` was run?
Its Potency is inconclusive: 39.8 µM [inhibitor, single point].

How did the Potency turn out when `O=C(CN1CCN(C(=O)c2ccco2)CC1)N1CCc2[nH]c3ccccc3c2C1` was run?
Its Potency is “inactive”.

Which Potency does the source give for `CCOC(=O)c1[nH]cnc1C(=O)Nc1ccc(C)cc1` here?
The Potency was “inactive”.

How did the Potency turn out when `C1=C(N2CCOCC2)/C(=C/c2nc3ccccc3[nH]2)CC1` was run?
The Potency was active: 25.1 µM.

`COc1cc(N2C(=O)c3ccccc3C2=O)c(Cl)cc1C(=O)OCC(=O)NCc1ccco1` was tested. Which Potency did it give?
Its Potency is inconclusive: 39.8 µM [inhibitor, single point].

Which Potency does the source give for `O=S(=O)(c1ccc(NC(=S)N/N=C/c2ccc(O)c(O)c2)cc1)N1CCOCC1` here?
The Potency was inconclusive: 35.5 µM [inhibitor, single point].

With `CN(C(=O)c1ccc2c(c1)CCN2S(C)(=O)=O)c1ccccc1` as the compound, how does the Potency read?
The Potency was inconclusive: 39.8 µM [inhibitor, single point].

`O=C(Cc1ccccc1)N/N=C/c1cccn1-c1ccc([N+](=O)[O-])cc1` was tested. Which Potency did it give?
Its Potency is inconclusive: 28.2 µM [inhibitor, partial curve].

With `Cc1ccc(C)c(N2CCN(C(=O)c3ccc4nc(-c5ccco5)c(-c5ccco5)nc4c3)CC2)c1` as the compound, how does the Potency read?
Its Potency is “inactive”.

Which Potency does the source give for `CC(=O)C(=Cc1ccc(C(=O)O)cc1)C(C)=O` here?
Its Potency is inconclusive: 22.4 µM [inhibitor, single point].

`O=C(CCN1C(=O)/C(=C\c2ccccc2)SC1=S)NNC(=O)c1cccnc1` was tested. Which Potency did it give?
The Potency was inconclusive: 0.794 µM [inhibitor, single point].

`NC(=O)c1cc(C(=O)c2cccc(Cl)c2Cl)c[nH]1` was tested. Which Potency did it give?
The Potency was inconclusive: 0.794 µM [inhibitor, single point].

With `COc1cccc(NC(=O)CC2S/C(=N\S(=O)(=O)c3ccccc3)N(c3ccccc3)C2=O)c1` (centres undefined) as the compound, how does the Potency read?
Its Potency is “inactive”.

Which Potency does the source give for `O=C(CC1C[C@H](C(=O)N2CCOCC2)[C@@]2(CCC3CCCC3)c3[nH]c4ccccc4c3CCN2C1=O)NCCc1ccccn1` (some centres undefined) here?
Its Potency is inconclusive: 39.8 µM [inhibitor, single point].

Which Potency does the source give for `CCC1(C)NC(=O)N(CC(=O)Nc2sc3c(c2C(N)=O)CCC3)C1=O` (centres undefined) here?
The Potency was inconclusive: 25.1 µM [inhibitor, single point].

How did the Potency turn out when `O=C(NO)c1cc(OCC(F)(F)F)ccc1OCC(F)(F)F` was run?
The Potency was “inactive”.

For `O=[N+]([O-])c1ccc(CN2CCN(c3ccc(F)cc3)CC2)o1`, which Potency is on record?
The Potency was “inactive”.

With `CCn1c(=O)c(C(=O)CN2CCN(S(=O)(=O)c3ccc(C)cc3C)CC2)c(N)n(Cc2ccccc2)c1=O` as the compound, how does the Potency read?
Its Potency is “inactive”.

How did the Potency turn out when `Cc1conc1NC(c1cccs1)c1ccc2cccnc2c1O` (centres undefined) was run?
The Potency was inconclusive: 35.5 µM [inhibitor, single point].

Which Potency does the source give for `Cc1ccc(N2CCN(/N=C/c3ccccc3[N+](=O)[O-])CC2)cc1` here?
Its Potency is inconclusive: 7.08 µM [inhibitor, partial curve].

With `CCOc1ccc(NC(=O)c2ccc(NC(=O)COC(=O)c3ccc(NC(=O)CC#N)cc3)cc2)cc1` as the compound, how does the Potency read?
Its Potency is active: 1.58 µM.

How did the Potency turn out when `CC(=O)Nc1ccc(S(=O)(=O)Nc2ccc(N3CCCCC3)cc2)cc1` was run?
Its Potency is inconclusive: 35.5 µM [inhibitor, partial curve].

For `Nn1c(SCC(=O)Nc2nccs2)nnc1-c1ccccn1`, which Potency is on record?
Its Potency is inconclusive: 31.6 µM [inhibitor, single point].

With `O=C(O)c1cccc(NC(=O)c2cccc(S(=O)(=O)Nc3cccc([N+](=O)[O-])c3)c2)c1` as the compound, how does the Potency read?
The Potency was “inactive”.

With `O=C(C1CCN(Cc2ccccc2)CC1)N1CCN(C/C=C/c2ccccc2)CC1` as the compound, how does the Potency read?
The Potency was “inactive”.

With `O=C(CSc1nc(-c2ccc(F)cc2)nc2c1Cc1ccccc1O2)Nc1cccc(C(=O)O)c1` as the compound, how does the Potency read?
Its Potency is inconclusive: 5.01 µM [inhibitor, full curve].

Which Potency does the source give for `CN(C)S(=O)(=O)c1ccc(C(=O)NCCN2C(=O)S/C(=C\c3cccnc3)C2=O)cc1` here?
Its Potency is inconclusive: 0.794 µM [inhibitor, full curve, poor fit].

With `CCOC(=O)N1CCC(N2Cc3cccc(C(=O)NCc4ccc(OC)cc4)c3C2=O)CC1` as the compound, how does the Potency read?
The Potency was inconclusive: 25.1 µM [inhibitor, partial curve].

`COC(=O)NC(NC(=S)Nc1ccc([N+](=O)[O-])cc1)C(Cl)(Cl)Cl` (centres undefined) was tested. Which Potency did it give?
The Potency was inconclusive: 8.91 µM [inhibitor, partial curve].

With `COc1ccc(C(=O)c2nccc3cc(OC)c(OC)cc23)cc1OC` as the compound, how does the Potency read?
The Potency was inconclusive: 39.8 µM [inhibitor, single point].

`COCCNC(=O)CCC1CCN(Cc2cccc(-c3ccc(C)o3)c2)CC1` was tested. Which Potency did it give?
The Potency was “inactive”.

With `Cc1c(NC2=C(Cl)C(=O)N(c3ccccc3Cl)C2=O)c(=O)n(-c2ccccc2)n1C` as the compound, how does the Potency read?
Its Potency is inconclusive: 25.1 µM [inhibitor, single point].

With `Cc1nc(N2CCN(S(=O)(=O)c3ccccc3C#N)CC2)c2c(-c3cccs3)csc2n1` as the compound, how does the Potency read?
The Potency was “inactive”.

With `COc1ccc(C(C(O)C(=O)c2c[nH]c3ccccc23)N2CCN(c3ccccc3)CC2)cc1` (centres undefined) as the compound, how does the Potency read?
The Potency was inconclusive: 5.62 µM [inhibitor, single point].

`CCOc1ccc2nc(N3C(=O)C(O)=C(C(=O)c4ccco4)C3c3ccco3)sc2c1` (centres undefined) was tested. Which Potency did it give?
Its Potency is inconclusive: 39.8 µM [inhibitor, single point].

Which Potency does the source give for `CC(C)COc1nc2c(c(=O)n(C)c(=O)n2C)n1C` here?
Its Potency is inconclusive: 0.794 µM [inhibitor, single point].

For `S=c1[nH]nc(-c2ccccn2)n1/N=C/c1cccs1`, which Potency is on record?
Its Potency is active: 28.2 µM.

Which Potency does the source give for `Oc1ccc(COC2CCCC2)c2cccnc12` here?
The Potency was active: 20 µM.

How did the Potency turn out when `CSc1nnc(C)c(/C=C/NOCc2cccc(F)c2)n1` was run?
The Potency was “inactive”.

How did the Potency turn out when `CC(C)n1nnnc1SCC(=O)Nc1ccccc1N1CCOCC1` was run?
The Potency was “inactive”.

For `N#C/C(=N\Nc1ccccc1[N+](=O)[O-])C(=N)N1CCCCC1`, which Potency is on record?
The Potency was inconclusive: 31.6 µM [inhibitor, partial curve].

With `CC(=O)/C(=N/Nc1ccccc1[N+](=O)[O-])N1CCCc2ccccc21` as the compound, how does the Potency read?
The Potency was inconclusive: 12.6 µM [inhibitor, partial curve].

Which Potency does the source give for `CN(C)C/C=C(\c1ccc(Br)cc1)c1cccnc1` here?
Its Potency is “inactive”.

Which Potency does the source give for `Cc1c(C(=O)c2ccc(Cl)cc2[N+](=O)[O-])c2ccccn2c1CCC#N` here?
The Potency was inconclusive: 22.4 µM [inhibitor, single point].

With `NN1C(=O)/C(=C\c2ccco2)SC1=S` as the compound, how does the Potency read?
The Potency was active: 25.1 µM.

How did the Potency turn out when `COc1cnc(-c2ccccn2)nc1Sc1ccc(C)cc1` was run?
Its Potency is inconclusive: 11.2 µM [inhibitor, partial curve].

Which Potency does the source give for `CCOc1ccc(C=NNc2ccc(S(=O)(=O)Nc3ccccc3C(=O)O)cc2[N+](=O)[O-])cc1` here?
Its Potency is active: 15.8 µM.

`O=S(=O)(c1ccc2c(c1)C(O)c1ccccc1CC2)C(F)(F)F` (centres undefined) was tested. Which Potency did it give?
Its Potency is “inactive”.

Which Potency does the source give for `COc1cc(N=Nc2ccccc2C(=O)O)ccc1O` here?
Its Potency is inconclusive: 22.4 µM [inhibitor, single point].

Which Potency does the source give for `CCNc1nc(NCC)nc(N/N=C/c2ccc(N(C)C)cc2)n1` here?
The Potency was inconclusive: 28.2 µM [inhibitor, partial curve].

Which Potency does the source give for `CCCSc1nc(C)c(-c2csc(C(C#N)=C3CCCC3)n2)cc1C#N` here?
Its Potency is inconclusive: 8.91 µM [inhibitor, partial curve].

For `CN(CC(=O)Nc1cccc(F)c1)C(=O)CCc1nc2sc3c(c2c(=O)[nH]1)CCCC3`, which Potency is on record?
The Potency was inconclusive: 28.2 µM [inhibitor, single point].

How did the Potency turn out when `CN(C)c1ccc(P(=O)(OC2CCCCC2)C(O)c2ccncc2)cc1` (centres undefined) was run?
Its Potency is “inactive”.

With `CCCn1c(Nc2nc3ccccc3n2C)nc2ccccc21` as the compound, how does the Potency read?
Its Potency is active: 17.8 µM.
